In the supplement of paper PMC11876631:
± gives the standard deviation of the averaged measurements. Laboratory Escherichia coli strains with one amino-acid change in an essential protein, pooled on minimal glucose agar with carbenicillin or gentamicin at twice the control MIC (plus kanamycin and chloramphenicol for the plasmids), 48 h. Fold change of barcode share against drug-free plates; higher = less susceptible. Active = above 20 in both replicates (the paper's putatively resistant). '<' = one read or none on drug, '>' = one read or none on a drug-free plate. Shares are relative, so most strains fall below 1 when a few take over. Listed are strains with at least 15 reads on both drug-free plates, and hits; most hits rest on fewer reference reads. Replicate rank correlation about 0.5. Edits are read from barcodes.

Target: Escherichia coli (laboratory strain)
Experiment: barcode share on antibiotic plates over drug-free plates; higher = less susceptible
Method: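 A pool of E. coli strains, each edited to carry one amino-acid change in an essential protein, was grown for 48 h on minimal glucose agar with or without antibiotic; strain barcodes were sequenced; mean of two replicates.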

[1] = antibiotic: carbenicillin, 2× MIC (3.1 µg/mL)
[2] = antibiotic: gentamicin, 2× MIC (MIC 0.45 µg/mL)

| Protein | fold change of barcode share [1] | fold change of barcode share [2] |
| --- | --- | --- |
| hemC L66P (protein) MLDNVLRIATRQSPLALWQAHYVKDKLMASHPGLVVELVPMVTRGDVILDTPLAKVGGKGLFVKEPEVALLENRADIAVHSMKDVPVEFPQGLGLVTICEREDPRDAFVSNNYDSLDALPAGSIVGTSSLRRQCQLAERRPDLIIRSLRGNVGTRLSKLDNGEYDAIILAVAGLKRLGLESRIRAALPPEISLPAVGQGAVGIECRLDDSRTRELLAALNHHETALRVTAERAMNTRLEGGCQVPIGSYAELIDGEIWLRALVGAPDGSQIIRGERRGAPQDAEQMGISLAEELLNNGAREILAEVYNGDAPA | 0.475 ± 0.22 | 0.768 ± 1.1 |
| hemC V196A (protein) MLDNVLRIATRQSPLALWQAHYVKDKLMASHPGLVVELVPMVTRGDVILDTPLAKVGGKGLFVKELEVALLENRADIAVHSMKDVPVEFPQGLGLVTICEREDPRDAFVSNNYDSLDALPAGSIVGTSSLRRQCQLAERRPDLIIRSLRGNVGTRLSKLDNGEYDAIILAVAGLKRLGLESRIRAALPPEISLPAAGQGAVGIECRLDDSRTRELLAALNHHETALRVTAERAMNTRLEGGCQVPIGSYAELIDGEIWLRALVGAPDGSQIIRGERRGAPQDAEQMGISLAEELLNNGAREILAEVYNGDAPA | 0.333 ± 0.014 | 0.00437 ± 0.004 |
| hemC L174P (protein) MLDNVLRIATRQSPLALWQAHYVKDKLMASHPGLVVELVPMVTRGDVILDTPLAKVGGKGLFVKELEVALLENRADIAVHSMKDVPVEFPQGLGLVTICEREDPRDAFVSNNYDSLDALPAGSIVGTSSLRRQCQLAERRPDLIIRSLRGNVGTRLSKLDNGEYDAIILAVAGPKRLGLESRIRAALPPEISLPAVGQGAVGIECRLDDSRTRELLAALNHHETALRVTAERAMNTRLEGGCQVPIGSYAELIDGEIWLRALVGAPDGSQIIRGERRGAPQDAEQMGISLAEELLNNGAREILAEVYNGDAPA | 0.282 ± 0.082 | 0.0856 ± 0.11 |
| hemC I168Q (protein) MLDNVLRIATRQSPLALWQAHYVKDKLMASHPGLVVELVPMVTRGDVILDTPLAKVGGKGLFVKELEVALLENRADIAVHSMKDVPVEFPQGLGLVTICEREDPRDAFVSNNYDSLDALPAGSIVGTSSLRRQCQLAERRPDLIIRSLRGNVGTRLSKLDNGEYDAIQLAVAGLKRLGLESRIRAALPPEISLPAVGQGAVGIECRLDDSRTRELLAALNHHETALRVTAERAMNTRLEGGCQVPIGSYAELIDGEIWLRALVGAPDGSQIIRGERRGAPQDAEQMGISLAEELLNNGAREILAEVYNGDAPA | 0.362 ± 0.094 | 0.664 ± 0.93 |
| hemC L193A (protein) MLDNVLRIATRQSPLALWQAHYVKDKLMASHPGLVVELVPMVTRGDVILDTPLAKVGGKGLFVKELEVALLENRADIAVHSMKDVPVEFPQGLGLVTICEREDPRDAFVSNNYDSLDALPAGSIVGTSSLRRQCQLAERRPDLIIRSLRGNVGTRLSKLDNGEYDAIILAVAGLKRLGLESRIRAALPPEISAPAVGQGAVGIECRLDDSRTRELLAALNHHETALRVTAERAMNTRLEGGCQVPIGSYAELIDGEIWLRALVGAPDGSQIIRGERRGAPQDAEQMGISLAEELLNNGAREILAEVYNGDAPA | > 53.1 [active] | – |
| hemC L193Q (protein) MLDNVLRIATRQSPLALWQAHYVKDKLMASHPGLVVELVPMVTRGDVILDTPLAKVGGKGLFVKELEVALLENRADIAVHSMKDVPVEFPQGLGLVTICEREDPRDAFVSNNYDSLDALPAGSIVGTSSLRRQCQLAERRPDLIIRSLRGNVGTRLSKLDNGEYDAIILAVAGLKRLGLESRIRAALPPEISQPAVGQGAVGIECRLDDSRTRELLAALNHHETALRVTAERAMNTRLEGGCQVPIGSYAELIDGEIWLRALVGAPDGSQIIRGERRGAPQDAEQMGISLAEELLNNGAREILAEVYNGDAPA | 3.37 ± 0.67 | 0.0927 ± 0.079 |
| hemC I77A (protein) MLDNVLRIATRQSPLALWQAHYVKDKLMASHPGLVVELVPMVTRGDVILDTPLAKVGGKGLFVKELEVALLENRADAAVHSMKDVPVEFPQGLGLVTICEREDPRDAFVSNNYDSLDALPAGSIVGTSSLRRQCQLAERRPDLIIRSLRGNVGTRLSKLDNGEYDAIILAVAGLKRLGLESRIRAALPPEISLPAVGQGAVGIECRLDDSRTRELLAALNHHETALRVTAERAMNTRLEGGCQVPIGSYAELIDGEIWLRALVGAPDGSQIIRGERRGAPQDAEQMGISLAEELLNNGAREILAEVYNGDAPA | 0.292 ± 0.022 | 0.00475 ± 0.0033 |
| hemC V109A (protein) MLDNVLRIATRQSPLALWQAHYVKDKLMASHPGLVVELVPMVTRGDVILDTPLAKVGGKGLFVKELEVALLENRADIAVHSMKDVPVEFPQGLGLVTICEREDPRDAFASNNYDSLDALPAGSIVGTSSLRRQCQLAERRPDLIIRSLRGNVGTRLSKLDNGEYDAIILAVAGLKRLGLESRIRAALPPEISLPAVGQGAVGIECRLDDSRTRELLAALNHHETALRVTAERAMNTRLEGGCQVPIGSYAELIDGEIWLRALVGAPDGSQIIRGERRGAPQDAEQMGISLAEELLNNGAREILAEVYNGDAPA | 0.552 ± 0.027 | < 0.0227 |
| hemC I168P (protein) MLDNVLRIATRQSPLALWQAHYVKDKLMASHPGLVVELVPMVTRGDVILDTPLAKVGGKGLFVKELEVALLENRADIAVHSMKDVPVEFPQGLGLVTICEREDPRDAFVSNNYDSLDALPAGSIVGTSSLRRQCQLAERRPDLIIRSLRGNVGTRLSKLDNGEYDAIPLAVAGLKRLGLESRIRAALPPEISLPAVGQGAVGIECRLDDSRTRELLAALNHHETALRVTAERAMNTRLEGGCQVPIGSYAELIDGEIWLRALVGAPDGSQIIRGERRGAPQDAEQMGISLAEELLNNGAREILAEVYNGDAPA | 1.25 ± 0.21 | 0.04951 ± 0.00012 |
| hemC L174Q (protein) MLDNVLRIATRQSPLALWQAHYVKDKLMASHPGLVVELVPMVTRGDVILDTPLAKVGGKGLFVKELEVALLENRADIAVHSMKDVPVEFPQGLGLVTICEREDPRDAFVSNNYDSLDALPAGSIVGTSSLRRQCQLAERRPDLIIRSLRGNVGTRLSKLDNGEYDAIILAVAGQKRLGLESRIRAALPPEISLPAVGQGAVGIECRLDDSRTRELLAALNHHETALRVTAERAMNTRLEGGCQVPIGSYAELIDGEIWLRALVGAPDGSQIIRGERRGAPQDAEQMGISLAEELLNNGAREILAEVYNGDAPA | 0.57 ± 0.25 | 0.00839 ± 0.0055 |
| hemC I168A (protein) MLDNVLRIATRQSPLALWQAHYVKDKLMASHPGLVVELVPMVTRGDVILDTPLAKVGGKGLFVKELEVALLENRADIAVHSMKDVPVEFPQGLGLVTICEREDPRDAFVSNNYDSLDALPAGSIVGTSSLRRQCQLAERRPDLIIRSLRGNVGTRLSKLDNGEYDAIALAVAGLKRLGLESRIRAALPPEISLPAVGQGAVGIECRLDDSRTRELLAALNHHETALRVTAERAMNTRLEGGCQVPIGSYAELIDGEIWLRALVGAPDGSQIIRGERRGAPQDAEQMGISLAEELLNNGAREILAEVYNGDAPA | 0.317 ± 0.044 | 0.0168 ± 0.018 |
| hemC L174A (protein) MLDNVLRIATRQSPLALWQAHYVKDKLMASHPGLVVELVPMVTRGDVILDTPLAKVGGKGLFVKELEVALLENRADIAVHSMKDVPVEFPQGLGLVTICEREDPRDAFVSNNYDSLDALPAGSIVGTSSLRRQCQLAERRPDLIIRSLRGNVGTRLSKLDNGEYDAIILAVAGAKRLGLESRIRAALPPEISLPAVGQGAVGIECRLDDSRTRELLAALNHHETALRVTAERAMNTRLEGGCQVPIGSYAELIDGEIWLRALVGAPDGSQIIRGERRGAPQDAEQMGISLAEELLNNGAREILAEVYNGDAPA | 0.315 ± 0.029 | 0.00806 ± 0.0064 |
| hemC I168W (protein) MLDNVLRIATRQSPLALWQAHYVKDKLMASHPGLVVELVPMVTRGDVILDTPLAKVGGKGLFVKELEVALLENRADIAVHSMKDVPVEFPQGLGLVTICEREDPRDAFVSNNYDSLDALPAGSIVGTSSLRRQCQLAERRPDLIIRSLRGNVGTRLSKLDNGEYDAIWLAVAGLKRLGLESRIRAALPPEISLPAVGQGAVGIECRLDDSRTRELLAALNHHETALRVTAERAMNTRLEGGCQVPIGSYAELIDGEIWLRALVGAPDGSQIIRGERRGAPQDAEQMGISLAEELLNNGAREILAEVYNGDAPA | 0.316 ± 0.053 | 0.0065 ± 0.0012 |
| hemB L244W (protein) MTDLIQRPRRLRKSPALRAMFEETTLSLNDLVLPIFVEEEIDDYKAVEAMPGVMRIPEKHLAREIERIANAGIRSVMTFGISHHTDETGSDAWREDGLVARMSRICKQTVPEMIVMSDTCFCEYTSHGHCGVLCEHGVDNDATLENLGKQAVVAAAAGADFIAPSAAMDGQVQAIRQALDAAGFKDTAIMSYSTKFASSFYGPFREAAGSALKGDRKSYQMNPMNRREAIRESLLDEAQGADCWMVKPAGAYLDIVRELRERTELPIGAYQVSGEYAMIKFAALAGAIDEEKVVLESLGSIKRAGADLIFSYFALDLAEKKILR | 0.411 ± 0.053 | 11 ± 10 |
